{"source": "PubChem BioAssay AID720542", "about": "(National Center for Advancing Translational Sciences (NCATS), 2013)", "note": "About 740 (0.21%) of roughly 360,000 compounds were called active. Inconclusive means that the source gave no clear call. Such entries were picked first, then a sample of the others. The call rests on the fitted dose curve; in most records, active means well fitted inhibition curve with a large enough effect; inconclusive means small, poorly fitted or top-dose-only effect; inactive means no such curve, though single readings can be large or run the other way. Potencies of inconclusive entries are left out as doubtful fits. Potency means the concentration at half of the fitted maximal effect; tags describe the fitted curve by direction and shape.", "data": [{"test_system": "Plasmodium falciparum AMA1 (3D7) - RON2 peptide interaction", "assay": "qHTS for Inhibitors of AMA1-RON; Towards Development of Antimalarial Drug Lead: Primary Screen; further: nearly all actives have a fitted effect of over 45% in size;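 on activity change, negative = inhibition: 0% = vehicle wells and -100% = peptide control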", "settings": "AlphaScreen AMA1-biotinylated RON2 peptide binding; activity change, negative = inhibition: at 58.2 µM (top of the series) unless noted", "how_it_was_run": "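AMA1 (3D7) with his tag at 25 nM final met compounds first, then biotinylated RON2 peptide at 25 nM; detection used donor plus acceptor beads, 10 µg/mL apiece, read by AlphaScreen after 30 min at room temperature.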", "values": [{"smiles": "O=C(Nc1ccc(Cl)c(Cl)c1)Nc1ccccc1C(=O)O", "activity change, negative = inhibition": "inactive: -0.0487%"}, {"smiles": "Cc1cc(C)c(C)c(OCCNCc2ccccc2)c1", "activity change, negative = inhibition": "inactive: -2.8%"}, {"smiles": "Cc1cccc(N(C(=O)CNC(=O)c2ccco2)C(C(=O)NC2CCCC2)c2cccnc2)c1", "note": "(centres undefined)", "activity change, negative = inhibition": "inactive: 12.1%"}, {"smiles": "COc1ccc(OCCN2CCC(C(=O)NC(c3ccc(F)cc3)c3ccc4ccccc4n3)CC2)cc1", "note": "(centres undefined)", "Potency": "inconclusive [inhibitor, partial curve]"}, {"smiles": "Cc1cccc(C)c1OCc1n[nH]c(=S)o1", "Potency": "inconclusive [inhibitor, single point]"}, {"smiles": "CCC(C)NC(=O)N[C@@H](Cc1ccccc1)C(=O)O", "note": "(some centres undefined)", "Potency": "inconclusive [inhibitor, full curve, poor fit]"}, {"smiles": "CN1OC[C@@H]2CN(Cc3ccc4c(c3)OCO4)[C@H](c3ccc(N4CCCCC4)cc3)C[C@@H]21", "Potency": "active: 14.1 µM"}, {"smiles": "COc1ccc(C(C(=O)Nc2ccc(C(C)C)cc2)N(Cc2ccco2)C(=O)CC2NC(=O)NC2=O)cc1", "note": "(centres undefined)", "Potency": "inconclusive [inhibitor, partial curve]"}, {"smiles": "CC(=O)Nc1ccc(S(=O)(=O)NC2=C(N3CCN(C)CC3)C(=O)c3ccccc3C2=O)cc1", "activity change, negative = inhibition": "inactive: 8.69%"}, {"smiles": "CCOC(=O)c1c(-c2ccc(OC)cc2)csc1NC(=O)CCN1CCOCC1", "Potency": "inconclusive [inhibitor, partial curve]"}, {"smiles": "O=C(CSCSCC(=O)NCC1CCCO1)NCC1CCCO1", "note": "(centres undefined)", "Potency": "inconclusive [inhibitor, full curve, poor fit]"}, {"smiles": "O=C(O)c1cc([N+](=O)[O-])ccc1NCc1ccccc1", "Potency": "inconclusive [inhibitor, single point]"}, {"smiles": "CC(C)C(c1nnnn1C(C)(C)C)N1CCOCC1", "note": "(centres undefined)", "Potency": "inconclusive [inhibitor, partial curve, poor fit]"}, {"smiles": "O=[N+]([O-])c1cccc(SSc2cccc([N+](=O)[O-])c2)c1", "Potency": "inconclusive [inhibitor, partial curve]"}, {"smiles": "COc1ccc(C(CCNCc2ccc(N(C)C)cc2)C(C)C)cc1", "note": "(centres undefined)", "Potency": "inconclusive [inhibitor, partial curve]"}, {"smiles": "CCOc1ccccc1N1CCN(Cc2ccc(Br)s2)CC1", "Potency": "inconclusive [inhibitor, partial curve]"}, {"smiles": "CC(C)(C)N(CC#CCC(O)(c1ccccc1)c1ccccc1)CCO", "Potency": "inconclusive [inhibitor, partial curve]"}, {"smiles": "O=C(O)c1ccccc1C(=O)Nc1ccccn1", "Potency": "inconclusive [inhibitor, full curve, poor fit]"}, {"smiles": "O=C(CN1C(=O)NC2(CCc3ccccc32)C1=O)Nc1cccc(Cl)c1", "note": "(centres undefined)", "Potency": "inconclusive [inhibitor, partial curve]"}, {"smiles": "Cc1cc(NC(=O)c2ccc(Cl)cc2)ccc1NC(=O)c1ccccc1Cl", "activity change, negative = inhibition": "inactive: -3.46%"}, {"smiles": "CC1(C)CCN2CCC(C)(C)c3c(O)ccc1c32", "Potency": "inconclusive [inhibitor, single point]"}, {"smiles": "COc1ccc(CN2Cc3cc(N4CCCCC4)ccc3-n3nncc3C2)cc1", "Potency": "inconclusive [inhibitor, single point]"}, {"smiles": "CC1CCN(c2ccc(NC(=O)c3ccc([N+](=O)[O-])o3)cc2)CC1", "Potency": "inconclusive [inhibitor, partial curve]"}, {"smiles": "CCOc1ccc(CN(C)CC(=O)Nc2cc(C)c(C)cc2[N+](=O)[O-])cc1", "Potency": "inconclusive [inhibitor, full curve, poor fit]"}, {"smiles": "COc1ccc2[nH]c3c(NCCC4=CCCCC4)ncnc3c2c1", "Potency": "inconclusive [inhibitor, partial curve]"}, {"smiles": "COc1ccc(-c2ccc(CCC(=O)O)n2CC(=O)Nc2ccccc2C)cc1", "Potency": "inconclusive [inhibitor, single point]"}, {"smiles": "Cc1ccc(NNC(=O)CCc2ccccc2)c(C)c1", "Potency": "inconclusive [inhibitor, single point]"}, {"smiles": "COCCn1nnnc1C(c1ccccc1)N1CCN(c2ccccc2)CC1", "note": "(centres undefined)", "Potency": "inconclusive [inhibitor, single point]"}, {"smiles": "CN(C)c1ccc(C2(c3ccc(N(C)C)cc3)OC(=O)c3cc(N)ccc32)cc1", "Potency": "inconclusive [inhibitor, single point]"}, {"smiles": "CCCCC(=O)NC(=S)NNC(=O)c1ccc(OC)cc1", "activity change, negative = inhibition": "inactive: 109%"}, {"smiles": "CC(CCCN1CCCC1)Nc1ccnc2cc(Cl)ccc12", "note": "(centres undefined)", "activity change, negative = inhibition": "inactive: -20.4%"}, {"smiles": "Cc1nc2ccc([N+](=O)[O-])cc2s1", "activity change, negative = inhibition": "inactive: 2.78%"}, {"smiles": "O=C(C=C1SCCS1)/C=C/c1ccco1", "Potency": "inconclusive [inhibitor, single point]"}, {"smiles": "COc1ccc(C2=NCc3nnc(C)n3-c3ccc(Cl)cc32)cc1Cl", "Potency": "inconclusive [inhibitor, full curve, poor fit]"}, {"smiles": "CCN1CCN(S(=O)(=O)c2ccc(Cl)c(C(=O)Nc3ccccc3N3CCCCC3)c2)CC1", "Potency": "inconclusive [inhibitor, full curve]"}, {"smiles": "COc1ccc(OC)c(C(=O)/C=C/c2ccccc2C(F)(F)F)c1", "activity change, negative = inhibition": "inactive: 6.21%"}, {"smiles": "COc1cccc(CN(C(=O)c2cccs2)C2CCS(=O)(=O)C2)c1", "note": "(centres undefined)", "activity change, negative = inhibition": "inactive: 1.62%"}, {"smiles": "COc1ccc(NC(=O)CN2CCc3ccccc3C2)c([N+](=O)[O-])c1", "Potency": "inconclusive [inhibitor, single point]"}, {"smiles": "COc1cc(/C=C/C(=O)NCCc2ccc(S(N)(=O)=O)cc2)ccc1OCC#N", "activity change, negative = inhibition": "inactive: -0.0276%"}, {"smiles": "CCN(CC)C(=O)c1sc(NC(=O)Cc2cccs2)c(C#N)c1C", "Potency": "inconclusive [inhibitor, single point]"}, {"smiles": "CCOC(=O)c1cc2c(=Cc3ccc(N(C)C)cc3)c3ccccc3n2[n+]1C", "Potency": "active: 20 µM"}, {"smiles": "COc1ccc(NC2=CC(c3ccc(OC)c(OC)c3)N(c3ccc(OC)cc3)C2=O)cc1", "note": "(centres undefined)", "Potency": "inconclusive [inhibitor, single point]"}, {"smiles": "O=S(=O)(Nc1ccc(NS(=O)(=O)c2ccccc2)c2ccccc12)c1ccccc1", "activity change, negative = inhibition": "inactive: -6.5%"}, {"smiles": "Nc1ccc2c(c1)Cc1cc(N)c(Cl)cc1-2", "Potency": "inconclusive [inhibitor, partial curve]"}, {"smiles": "CC1CCc2[nH]c3ccc(C(=O)N(C)CC(=O)Nc4ccccc4Cl)cc3c2C1", "note": "(centres undefined)", "Potency": "inconclusive [inhibitor, single point]"}, {"smiles": "O=C(Oc1ccc(Br)cc1C(=S)N1CCCCC1)c1cc([N+](=O)[O-])cc([N+](=O)[O-])c1", "Potency": "inconclusive [inhibitor, single point]"}, {"smiles": "COc1ccc(-c2csc(NC(=O)CSCc3c(C)noc3C)n2)c(OC)c1", "Potency": "inconclusive [inhibitor, partial curve]"}, {"smiles": "O=[N+]([O-])c1ccc(N2CCOCC2)c2c1no[n+]2[O-]", "Potency": "inconclusive [inhibitor, single point]"}, {"smiles": "CCN(CCCNC(=O)CN(C)S(=O)(=O)c1cccc2nsnc12)c1cccc(C)c1", "activity change, negative = inhibition": "inactive: -17.6%"}, {"smiles": "COCCNC(=S)N1CCc2cc(OC)c(OC)cc2C1COc1ccc(C(C)C)cc1", "note": "(centres undefined)", "Potency": "inconclusive [inhibitor, partial curve]"}, {"smiles": "O=C(CCNc1ccc(Br)cc1)c1cccc([N+](=O)[O-])c1", "Potency": "inconclusive [inhibitor, partial curve]"}, {"smiles": "Clc1ccc(Cn2ccc(C3CC3)n2)cc1", "activity change, negative = inhibition": "inactive: -10.8%"}, {"smiles": "O=C(O)C1CCCN1S(=O)(=O)c1ccc2c(c1)CCC2", "note": "(centres undefined)", "Potency": "inconclusive [inhibitor, single point]"}, {"smiles": "CCOc1ccccc1/C=C\\c1nc(O)c([N+](=O)[O-])c(=O)[nH]1", "activity change, negative = inhibition": "inactive: -3.97%"}, {"smiles": "CCOC(=O)/C(C#N)=C/C=C1\\C=Cc2ccccc2N1CC", "Potency": "inconclusive [inhibitor, full curve, poor fit]"}, {"smiles": "Cc1ccc(OCc2cc(C(=O)N3CCN(C4CCCCC4)CC3)no2)cc1C", "activity change, negative = inhibition": "inactive: -12%"}, {"smiles": "Cc1ccc(C)c(-n2[nH]c3c4c(ccc3c2=O)C(=O)c2ccccc2C4=O)c1", "activity change, negative = inhibition": "inactive: -3.56%"}, {"smiles": "CN(C)c1ccc(CN2CC=C(c3ccc(F)cc3)CC2)cc1", "Potency": "inconclusive [inhibitor, partial curve]"}, {"smiles": "COc1cccc(CNC(C)(C)CO)c1OCc1ccc(Cl)cc1", "activity change, negative = inhibition": "inactive: -3.07%"}, {"smiles": "CCN(CC)CCn1c(=S)[nH]c2cc(Cl)ccc2c1=O", "activity change, negative = inhibition": "inactive: 9.18%"}, {"smiles": "C/C(=N\\Nc1ccc([N+](=O)[O-])cc1[N+](=O)[O-])C(C)C(C)C", "note": "(centres undefined)", "Potency": "inconclusive [inhibitor, partial curve]"}, {"smiles": "CCOC(=O)/C=C1\\CC(=O)Nc2nonc2N1", "Potency": "inconclusive [inhibitor, single point]"}, {"smiles": "CNC(=S)N(Cc1ccc(OC)cc1)C1CC(=O)N(c2ccc(Cl)cc2)C1=O", "note": "(centres undefined)", "Potency": "inconclusive [inhibitor, single point]"}, {"smiles": "Cc1cccc(NC(=O)CNC(=O)c2cn(Cc3ccccc3)nc2-c2cccnc2)c1C", "activity change, negative = inhibition": "inactive: 5.44%"}, {"smiles": "COc1ccc(OC(=O)N2C/C(=C/c3ccccc3)C(=O)/C(=C\\c3ccccc3)C2)cc1", "activity change, negative = inhibition": "inactive: -28.1%"}, {"smiles": "C[C@H]1c2cccc(O)c2C(O)=C2C(=O)C3(O)C(O)=C(C(N)=O)C(=O)[C@@H](N(C)C)[C@@H]3[C@@H](O)[C@@H]21", "note": "(some centres undefined)", "Potency": "inconclusive [inhibitor, full curve]"}, {"smiles": "C[C@@H]1CN([C@@H](C)CO)C(=O)c2cccc(NC(=O)Nc3ccc(F)cc3)c2O[C@@H]1CN(C)Cc1ccc(Oc2ccccc2)cc1", "Potency": "inconclusive [inhibitor, partial curve]"}, {"smiles": "O=C(N1CCN(c2ccccn2)CC1)N1c2ccccc2Sc2ccccc21", "Potency": "inconclusive [inhibitor, partial curve]"}, {"smiles": "Cc1cc(C)n2nc(SCCC(=O)NCc3ccccc3)nc2n1", "Potency": "inconclusive [inhibitor, partial curve]"}]}]}
